Hit rate of the full screen: of about 130,000 compounds, about 550 (0.42%) were called active. Inconclusive results, whose numbers are uncertain, are shown with a selection of clear calls. The call rests on the fitted dose curve; in most records, active means well fitted inhibition curve with a large enough effect; inconclusive means small, poorly fitted or top-dose-only effect, or effect the other way; inactive means flat fitted curve, though single readings scatter. No potency is given beside an inconclusive call; the fits are too rough.
test: qHTS Assay for Inhibitors of the ERK Signaling Pathway using a Homogeneous Screening Assay; Stimulation with EGF; details: HEK293-V1b, EGF-stimulated phospho-ERK AlphaScreen; activity change, negative = inhibition: at the top concentration; further: nearly all actives have a fitted effect of over 55% in size;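 on activity change, negative = inhibition: plate controls were stimulated vehicle wells for no effect and unstimulated vehicle basal for full effect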
Procedure, shortened: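 Phospho-ERK1/2 measured by AlphaScreen (SureFire) after 5 min 25 nM EGF stimulation of V1b-expressing HEK293 cells preincubated 30 min at 37C with titrated compounds; data scaled to DMSO and EGF controls, Hill-fitted AC50.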
Potency means the concentration at half of the fitted maximal effect; tags describe the fitted curve by direction and shape.

Row | SMILES | Potency | activity change, negative = inhibition
1 | COc1ccc(-n2nc([N+](=O)[O-])c(=NCc3ccco3)n2O)cc1 | inconclusive [inhibitor, single point] | –
2 | CC1=C/C(=N\S(=O)(=O)c2ccccc2)C(C(C)C)=CC1=O | inconclusive [inhibitor, single point] | –
3 | O=C(c1cccc(S(=O)(=O)N2CCc3ccccc32)c1)N1CCN(c2ccccn2)CC1 | inconclusive [inhibitor, single point] | –
4 | CCOc1c(Cl)cc(CNc2ccc(N3CCCC3)cc2)cc1OC | inconclusive [inhibitor, single point] | –
5 | O=C(O)CC(CC(=O)Nc1ccc(-n2ccc(C(F)(F)F)n2)cc1)c1ccccc1 (centres undefined) | inconclusive [inhibitor, full curve, poor fit] | –
6 | CCN(CC)P(=O)(Nc1ccccc1Br)c1ccc(N(C)C)cc1NC(=O)c1ccco1 (centres undefined) | – | inactive: -0.274%
7 | Cc1nc(NC2CCCCC2)c2nc(-c3ccccc3)n(CCN3CCCC3)c2n1 | – | inactive: 4.88%
8 | COc1ccc(N=c2scc(-c3ccc(S(=O)(=O)N4CCOCC4)cc3)n2CCCO)cc1 | inconclusive [inhibitor, partial curve, poor fit] | –
9 | Cc1ccc2sc(NNC(=O)c3cc(-c4cccs4)nc4ccccc34)nc2c1C | inconclusive [inhibitor, single point] | –
10 | CN(c1ccc(C(=O)Nc2ccc(Cl)cn2)cc1)S(=O)(=O)c1ccccc1 | inconclusive [inhibitor, single point] | –
11 | Brc1ccccc1-n1nnc(-c2ccnc3ccccc23)n1 | inconclusive [inhibitor, partial curve] | –
12 | COc1ccc(C(=O)C2CCCN(C(=O)c3n[nH]c4c3CCCC4)C2)cc1OC (centres undefined) | inconclusive [inhibitor, partial curve] | –
13 | COC(OC)c1ccc(C#N)c(SCc2ccc(C)cc2)n1 | inconclusive [activator, single point] | –
14 | CC(C)(c1ccccc1)c1ccc(OCC(O)CNC2CCN(Cc3ccccc3)CC2)cc1 (centres undefined) | inconclusive [inhibitor, single point] | –
15 | Cc1ccc(C2CC(c3ccccc3)=NN2c2ccccc2)o1 (centres undefined) | inconclusive [activator, partial curve] | –
16 | Cc1cccn2cc(CNC(=O)c3ccc(Br)o3)nc12 | inconclusive [activator, full curve, poor fit] | –
17 | CN1/C(=C\C(=O)c2cncc(Br)c2)C(C)(C)c2ccccc21 | inconclusive [inhibitor, single point] | –
18 | Cc1ccc(N=c2c([N+](=O)[O-])nn(-c3ccc4c(c3)OCCO4)n2O)cc1F | inconclusive [inhibitor, partial curve] | –
19 | CC1=NN(c2ccccc2)C(=O)/C1=C\C=C\c1ccccc1 | active: 25.1 µM | –
20 | COc1ccccc1N1CCN(C(c2cccs2)C(C)NC(=O)c2cccnc2)CC1 (centres undefined) | inconclusive [inhibitor, full curve] | –
21 | CC(=O)Nc1ccc(Nc2cc(C(C)C)nc3c(-c4ccccc4)c(C)nn23)cc1 | inconclusive [inhibitor, single point] | –
22 | COc1cc(/C=N/n2cc(-c3ccccc3)[nH]c2=S)cc(OC)c1O | inconclusive [inhibitor, partial curve] | –

Row | SMILES | Potency | activity change, negative = inhibition
23 | COc1cccc(OC)c1C(=O)Nc1cc(C)nn1-c1nc2ccccc2[nH]1 | inconclusive [inhibitor, partial curve] | –
24 | CC(C)N1CCN(Cc2ccc(OCc3ccccc3)cc2)CC1CCO (centres undefined) | inconclusive [inhibitor, partial curve] | –
25 | CC(NCc1cc(Br)ccc1OCC(=O)NCc1ccccc1)c1ccccc1 (centres undefined) | inconclusive [inhibitor, single point] | –
26 | COc1ccc2c(c1)c1nc3ccccc3nc1n2Cc1ccc(OC(C)C)c(OC)c1 | inconclusive [activator, partial curve] | –
27 | CC(C)(C)NC(=O)NCc1ccco1 | – | inactive: 4.86% [at 57.5 µM]
28 | Cc1cc(C(=O)N/N=C/c2sc(N3CCOCC3)nc2-c2ccccc2)c(C)o1 | inconclusive [inhibitor, single point] | –
29 | COc1ccc(NC(=O)CCN2CCOCC2)c(OC)c1 | inconclusive [inhibitor, single point] | –
30 | CC(NC(=S)NCCc1ccccc1)C(c1cccs1)N1CCN(Cc2ccccc2)CC1 (centres undefined) | inconclusive [inhibitor, partial curve] | –
31 | Cc1cc(C(=O)COc2ccc3ccc(=O)oc3c2)c(C)n1Cc1cccs1 | – | inactive: 5.51%
32 | CC(/C=C1\SC(=S)N(NC(=O)c2ccccc2C)C1=O)=C\c1ccccc1 | inconclusive [inhibitor, partial curve] | –
33 | COc1ccc(Oc2ncc3nc(-c4cn(C)c5ccccc45)c(=O)n(CCC#N)c3n2)cc1 | inconclusive [activator, full curve, poor fit] | –
34 | Cc1ccc(S(=O)(=O)N(CC(=O)N2CCc3ccccc3C2)c2cccc(Cl)c2)cc1 | inconclusive [inhibitor, single point] | –
35 | COc1ccc(Nc2ncnc3c2cnn3-c2cccc(C)c2)cc1OC | – | inactive: -8.52% [at 57.5 µM]
36 | COC(=O)c1nn(-c2ccccc2)c(=O)cc1Sc1ccc(Cl)cc1 | inconclusive [inhibitor, single point] | –
37 | Cc1c(N=C2C=C(Br)C(=O)C(Br)=C2)c(=O)n(-c2ccccc2)n1C | inconclusive [inhibitor, partial curve, poor fit] | –
38 | Cc1ccc2cc3c(N)c4c(C)ccc(C)c4nc3nc2c1 | inconclusive [inhibitor, single point] | –
39 | Cc1ccc(-n2cccc2/C=C2/NC(=O)N(CC(=O)Nc3cccc(C)c3)C2=O)cc1 | – | inactive: -4.12%
40 | CCN(CC)C(=O)Cn1cc(C(=O)C(=O)NCC2COc3ccccc3O2)c2ccccc21 (centres undefined) | inconclusive [inhibitor, single point] | –
41 | CCOc1cc(NC(=O)CCl)c(OCC)cc1NC(=O)CCl | inconclusive [inhibitor, single point] | –
42 | Oc1ccc(/C=N/Nc2nc(-c3ccc(Cl)cc3)cc(C(F)(F)F)n2)cc1 | inconclusive [inhibitor, single point] | –
43 | CC1CC(C)CN(CCCNC(=O)c2cc3c(=O)[nH]c4ccccc4c3n2C)C1 (centres undefined) | inconclusive [inhibitor, single point] | –
44 | Cc1cccc2sc(N(CCCN(C)C)C(=O)CCc3ccccc3)nc12 | inconclusive [inhibitor, single point] | –

Row | SMILES | Potency | activity change, negative = inhibition
45 | O=S1(=O)CCC(NC(=S)Nc2ccc3ccccc3c2)C1 (centres undefined) | inconclusive [inhibitor, single point] | –
46 | CCN(CC)CC#CCOC(=O)[C@@](O)(c1ccccc1)C1CCCCC1 | – | inactive: -6.74% [at 25.7 µM]
47 | CCN(CC)S(=O)(=O)c1ccc(Cl)c(NC(=O)COC(=O)c2c(C)noc2C)c1 | – | inactive: 7.45%
48 | O=[N+]([O-])c1ccccc1/C=N\N1CCN(c2ccccc2)CC1 | active: 22.4 µM | –
49 | CNC(=S)NNc1nc(C)cc(C)n1 | inconclusive [inhibitor, single point] | –
50 | CCN(CC)c1ccc(C2=NNC(=O)CC2C)cc1[N+](=O)[O-] (centres undefined) | inconclusive [inhibitor, partial curve, poor fit] | –
51 | COc1ccc(NC(=O)c2ccccc2S(=O)c2ccccc2C#N)cc1 (centres undefined) | – | inactive: -13.8%
52 | Cn1cccc1/C=N/N1CCN(Cc2ccc(Cl)cc2)CC1 | inconclusive [inhibitor, partial curve] | –
53 | CCOc1ccc(C2C(C(=O)/C=C/c3ccco3)=C(O)C(=O)N2CCN2CCOCC2)cc1OC (centres undefined) | – | inactive: 6.32%
54 | C/C(=N\Nc1nnc(-c2ccccc2)c(-c2ccccc2)n1)c1cccc([N+](=O)[O-])c1 | inconclusive [inhibitor, full curve] | –
55 | O=C(Cc1n[nH]c(=O)[nH]c1=O)N/N=C/c1cccc(Cl)c1 | inconclusive [activator, full curve] | –
56 | Cc1cc(C)n(-c2nc(N(c3ccccc3)c3ccccc3)nc(-n3nc(C)cc3C)n2)n1 | inconclusive [inhibitor, full curve] | –
57 | CCN(CC)c1ccc(NC(=O)CCNC(=O)c2ccco2)cc1 | – | inactive: 1.4%
58 | COc1ccc(-c2csc3nc(C)nc(N4CCN(c5ccc(C(C)=O)cc5)CC4)c23)cc1OC | inconclusive [inhibitor, single point] | –
59 | NC(=O)C1CCN(CCC(=O)Nc2ccc(Br)cc2)CC1 | inconclusive [inhibitor, single point] | –
60 | Cc1cccc(N2C(=O)C(Cl)=C(N3CCOCC3)C2=O)c1 | inconclusive [activator, full curve, poor fit] | –
61 | CCN(CC)c1ccc2cc(S(=O)(=O)c3ccc(Cl)cc3)c(=O)oc2c1 | inconclusive [activator, partial curve] | –
62 | CC(C)[C@@H](CC(=O)N[C@@H]1CCNC[C@H]1C(=O)N[C@H](CC(=O)N[C@@H](CCC(=O)O)CC(=O)O)Cc1c[nH]c2ccccc12)NC(=O)C[C@H](Cc1ccccc1)NC(=O)[C@@H]1CCCC[C@H]1N | – | inactive: -9.53%
63 | Cc1ccc(C(C)C)c(OCc2ccc(C(=O)N/N=C/c3cccc(O)c3O)cc2)c1 | – | inactive: -1.32%
64 | CCc1cc2ccc(OC)cc2nc1SCC(=O)N1CCN(C(=O)c2ccco2)CC1 | inconclusive [inhibitor, partial curve, poor fit] | –
